# Results: the supplement of paper PMC6531468
# This is one part of the list. Read counts after selection give these values, which scatter widely. Scores sum up all selected molecules that hold the word; the word was not tested alone.
# System: IMP3 KH1-4
# Test: 6-mer SELEX enrichment z-score vs GST control; IMP3 is the RNA-binding protein IGF2BP3; higher = more enriched by binding
# Details: construct: KH1-4 (164-579); SELEX round: R4
# Experimental: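 SELEX-seq with GST-tagged IMP3 KH1-4 (Pro164-Lys579) and an N40 RNA pool, round 4. 6-mer z-score of sequence-tag enrichment normalised to the corresponding GST SELEX round; RNA k-mers written as DNA (T for U).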
# IMP3 KH1-4, sequence (chain, as listed by the source): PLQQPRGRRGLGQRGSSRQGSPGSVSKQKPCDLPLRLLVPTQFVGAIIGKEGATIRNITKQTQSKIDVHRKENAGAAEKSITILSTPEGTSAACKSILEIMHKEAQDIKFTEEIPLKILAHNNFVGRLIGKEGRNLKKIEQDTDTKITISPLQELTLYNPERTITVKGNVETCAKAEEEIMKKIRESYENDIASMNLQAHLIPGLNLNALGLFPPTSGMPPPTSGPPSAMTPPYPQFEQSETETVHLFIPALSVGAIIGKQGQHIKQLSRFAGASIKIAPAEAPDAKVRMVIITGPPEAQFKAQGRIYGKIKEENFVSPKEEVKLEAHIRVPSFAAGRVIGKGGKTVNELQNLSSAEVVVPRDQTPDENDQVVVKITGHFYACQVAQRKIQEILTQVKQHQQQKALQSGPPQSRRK
row,Sequence,6-mer SELEX enrichment z-score
1,GGGGCC,0.39
2,TCCATA,0.951
3,CGTCTC,-0.3
4,CAAGGC,0.038
5,GCCCGA,-2.31
6,TAAGCG,-1.14
7,TTAGCC,-0.02
8,GGTTAA,-0.107
9,CTGTGG,0.117
10,ACCTTT,0.013
11,TTGGTC,-0.041
12,GAGGTT,0.103
13,TTCCGA,-0.694
14,CTCCTA,0.315
15,ACACCG,-0.084
16,CTTCCA,0.56
17,GTGATA,0.54
18,GACCTT,-0.604
19,GACGAG,-1.72
20,CTAGCG,-1.48

row,Sequence,6-mer SELEX enrichment z-score
1,CAGAAT,0.797
2,GATCCT,-0.177
3,ATCGAC,-1.15
4,TGGGCT,-0.142
5,GCATCG,0.871
6,AAAACG,-2.28
7,CACAAT,1.97
8,CCATAC,0.378
9,CCGTTC,0.128
10,CTGAGT,-0.49
11,GTTGCG,-0.425
12,GCTATT,0.32
13,GGAAGC,-0.328
14,CTCACC,-0.737
15,ACCCAG,-2.07
16,TTTGTA,0.31
17,CACTTC,0.929
18,CTTCAG,0.129
19,TCGCCG,-0.134
20,GTATTA,0.085
